In PubChem BioAssay AID624296 (National Center for Advancing Translational Sciences (NCATS), 2012):
Among all 350,000 compounds or so, about 9,900 (2.8%) were called active. This list was built around the results that the source calls inconclusive (neither active nor inactive); the mix of calls is not that of the screen. Calls follow the shape of the dose curve; as a rule, active = well fitted activation curve with a large enough effect; inconclusive = small, poorly fitted or top-dose-only effect; inactive = no such curve, though single readings can be large or run the other way. No potency is given beside an inconclusive call; the fits are too rough.

Test: A quantitative high throughput screen for small molecules that induce DNA re-replication in MCF 10a normal breast cells. Also: nearly all actives have a fitted effect of over 50% in size. As to activity, positive = re-replication: % of control where 0% means no effect.
Conditions: MCF 10A DNA re-replication, Hoechst nuclear intensity, 48 h; activity, positive = re-replication: at 46.1 µM (top of the series)
Potency is read from the fitted curve at half-maximal effect; tags tell the direction and shape of the fitted curve.

Row | SMILES | Potency | activity, positive = re-replication
1 | Cc1c(N=Cc2ccc(Br)s2)cccc1[N+](=O)[O-] | inactive | 
2 | CCCCC[C@H]1CN(C2CCCCC2)C(=O)[C@@H]1CC(=O)NCc1ccccc1 | inconclusive [activator, single point] | 
3 | COc1ccc2nc(N3CCN(C(=O)C4COc5ccccc5O4)CC3)sc2c1 (stereo not drawn) | inconclusive [activator, partial curve, poor fit] | 
4 | CCCCCCCC(=O)OCC(=O)[C@@]1(O)CC[C@H]2[C@@H]3CCC4=CC(=O)CC[C@]4(C)[C@H]3[C@@H](O)C[C@@]21C | inactive | 
5 | NC(=O)C1CCN(C(=O)c2cc(-c3ccc(Cl)s3)nc3ccccc23)CC1 | inconclusive [activator, single point] | 
6 | CCOc1cc(C2C(C(=O)OC)=CN(C3CCCC3)C=C2C(=O)OC)cc(Br)c1O | inactive | 
7 | O=C(CN(C(=O)CNC(=O)c1ccco1)c1cccc(F)c1)NC1CCCCC1 | inactive | 
8 | COc1ccc(NC(=S)N2CCN(C/C=C/c3ccccc3)CC2)cc1 | inactive | 
9 | CC(=O)Nc1ccc(N2C(=O)c3ccc(S(=O)(=O)c4ccc(C(=O)O)cc4)cc3C2=O)cc1 | inconclusive [activator, single point] | 
10 | CCOC(=O)N1CCN(C(=O)c2ccc(CNS(=O)(=O)c3ccc(OC)cc3)cc2)CC1 | inactive | 
11 | COC(=O)C1=CN(CCCN2CCCC2=O)C=C(C(=O)OC)C1c1ccccc1C(F)(F)F | active: 13 µM | 
12 | COc1ccc2sc(-c3ccc(N(C)C)cc3)c(C#CCO)c2c1 |  | inconclusive: 147% [activator]
13 | O=C(Cc1ccc([N+](=O)[O-])cc1)NC1CCCCCC1 | inconclusive [activator, full curve, poor fit] | 
14 | Cc1ccc(CNS(=O)(=O)c2c(C(=O)N3CCCCC3)c(C)n(C)c2C)o1 | inconclusive [activator, single point] | 
15 | CCSc1nnc([C@H](Cc2c[nH]c3ccccc23)NC(=O)OC(C)(C)C)o1 |  | inactive: 432% [at 0.0737 µM]
16 | CN1CCN(C(=O)/C=C/c2ccc([N+](=O)[O-])cc2)CC1 | inconclusive [activator, partial curve, poor fit] | 
17 | O=C1NC(=O)/C(=C\c2ccccc2OCc2ccccc2)S1 | inconclusive [activator, single point] | 
18 | COc1ccc(NC(=O)CNC(=O)c2sc3ccccc3c2Cl)c(OC)c1 | inconclusive [activator, single point] | 
19 | COC(=O)C1(Cc2cc(-c3ccc(OC)cc3OC)no2)CCN(C(=O)OC(C)(C)C)CC1 | inactive | 
20 | Cc1ccc(C)c(NC(=O)CS(=O)(=O)c2cn(C)c3ccccc23)c1 | inconclusive [activator, single point] | 
21 | O=C(CCl)NN1C(=O)NC(c2ccccc2)(c2ccccc2)C1=O | inconclusive [activator, single point] | 
22 | N#C/C(=C\c1ccc(-c2cccc(Cl)c2)o1)C(=O)Nc1cccc2cccnc12 | inconclusive [activator, full curve, poor fit] | 
23 | Cc1cccc(NC(=O)c2ccc(COc3ccc(Cl)cc3Cl)o2)n1 | inconclusive [activator, single point] | 
24 | CN(C)c1cccc(C(=O)OCC(=O)N(Cc2ccccc2)C2CCS(=O)(=O)C2)c1 (stereo not drawn) | inconclusive [activator, single point] | 
25 | O=C(Nc1nc(-c2ccccn2)cs1)C1COc2ccccc2O1 (stereo not drawn) | inactive | 

Row | SMILES | Potency | activity, positive = re-replication
26 | O=C(Nc1ccc(Br)cc1)C1CC(c2c(F)cccc2Cl)=NO1 (stereo not drawn) | inconclusive [activator, single point] | 
27 | Cc1cccc(-c2cc3nc(-c4ccccc4)cc(=O)n3[nH]2)c1 | inconclusive [activator, full curve] | 
28 | O=C(CCCCCCC(=O)NCc1ccccc1)NCc1ccccc1 | inactive | 
29 | COc1ccc2c(c1)CCc1c(C(=O)N3CCOCC3)noc1-2 | inactive | 
30 | Cc1cc(N2CCC(C(=O)Nc3ccc(F)cc3)CC2)nc(-c2ccccc2)n1 | inconclusive [activator, single point] | 
31 | O=C(Nc1ccccc1)Nc1cccc(Cl)c1Cl | inactive | 
32 | COc1ccc(CCC(=O)NNC(=S)NCc2ccc(F)cc2)cc1 | inconclusive [activator, single point] | 
33 | O=C(O)c1cccc(Nc2nc(-c3cc4ccccc4oc3=O)cs2)c1 | inconclusive [activator, single point] | 
34 | COC(=O)CN(Cc1ccco1)S(=O)(=O)c1ccccc1 | inconclusive [activator, single point] | 
35 | CC1CCN(S(=O)(=O)c2cccc(C(=O)Nc3nncs3)c2)CC1 | inactive | 
36 | N#Cc1cccc(NC(=O)Cn2cnc(S(=O)(=O)N3CCCCC3)c2)c1 | inactive | 
37 | Cc1cc(C)nc(SC2CC(=O)N(c3ccc(C)c(C)c3)C2=O)n1 (stereo not drawn) | inactive | 
38 | COc1ccccc1CNC(=O)c1cccc(-c2ccc(C)c3ccccc23)n1 | inconclusive [activator, partial curve, poor fit] | 
39 | Cc1ccc(-c2noc(CN(C(=O)Cc3ccccc3)C(C)C)n2)cc1 | inactive | 
40 | Cc1cc(/C=C(\C#N)c2nc3ccccc3[nH]2)c(C)n1C | inactive | 
41 | O=C(NCc1ccccc1)C1CCCN(S(=O)(=O)c2cccc3nsnc23)C1 (stereo not drawn) | inactive | 
42 | Cc1ccc(CNC(=O)c2sc3nc4c(c(C(F)(F)F)c3c2N)CCC4)cc1 | inactive | 
43 | COc1ccc(-c2cn[nH]c2-c2ccc(OCc3ccccc3)cc2O)cc1OC | inconclusive [activator, single point] | 
44 | CCCCCOC(=O)c1[nH]c2c(c1C)C(=O)C(C(=O)OC)C(C)C2 (stereo not drawn) | active: 20.6 µM | 
45 | O=C(CSc1nc2ccc(Nc3nc(N4CCOCC4)nc(N4CCOCC4)n3)cc2s1)Nc1ccccc1F | active: 2.06 µM | 
46 | N#Cc1c(C(F)(F)F)cc(-c2cccc(Cl)c2)[nH]c1=O | active: 16.4 µM | 
47 | COc1ccccc1C(=O)COC(=O)c1cc(S(=O)(=O)N2CCCCC2)ccc1N1CCOCC1 | inactive | 
48 | CCOc1ccccc1C(=O)NC(C(=O)NCCc1ccccn1)C(C)C (stereo not drawn) | inactive | 
49 | Cc1cccc(NC(=O)c2cnc3scc(C)n3c2=O)c1 | inconclusive [activator, single point] | 
50 | CCOC(=O)c1cnc(-n2cc(C)cn2)nc1NCc1ccc2c(c1)OCO2 | inactive | 

Row | SMILES | Potency | activity, positive = re-replication
51 | COCC1CCN(C(=O)c2ccc3oc(CCCc4ccccc4)nc3c2)C1 (stereo not drawn) | inconclusive [activator, single point] | 
52 | CN(c1ccccc1)c1ncccn1 | inactive | 
53 | COc1ccc(N=C2SC(C(=O)O)CC(=O)N2C)cc1 (stereo not drawn) | inconclusive [activator, single point] | 
54 | COc1ccc(OC)c(-c2nnc3n2N=C(c2ccc(OC(F)F)c(OCC4CC4)c2)CS3)c1 | inconclusive [activator, single point] | 
55 | COc1cc(C(C)=O)ccc1OCCCOc1cccc2cccnc12 | inactive | 
56 | COc1ccc2nc(Nc3nc(CSc4nc5ccccc5[nH]4)cc(=O)[nH]3)nc(C)c2c1 | active: 3.66 µM | 
57 | Cc1ccc(NC(=O)CNC2CCCCC2)cc1Cl | inactive | 
58 | O=C1NN(c2ccc(Cl)cc2)C(=O)/C1=C\c1ccc(-c2cccc(C(=O)O)c2)o1 | inconclusive [activator, partial curve, poor fit] | 
59 | Cc1ccc(C(=O)OCC(=O)Nc2ccccc2C(F)(F)F)cc1S(=O)(=O)N1CCCCC1 | inactive | 
60 | O=C(Nc1ccccc1N1CCCC1)c1ccc(Cl)c(S(=O)(=O)N2CCOCC2)c1 | inconclusive [activator, partial curve, poor fit] | 
61 | COc1ccc(NS(=O)(=O)c2cc(C(=O)NNC(=O)c3ccncc3)ccc2OC)c(OC)c1 | inactive | 
62 | CC(=O)Nc1ccc(NC(=O)CC(c2ccccc2)c2ccccc2)cc1 | inactive | 
63 | CC(C)(C)OC(=O)NCc1ccc(CNC(=O)c2nc[nH]c2C(=O)N2CCN(c3ccccc3)CC2)cc1 | inconclusive [activator, single point] | 
64 | COc1cc2c(c(OC)c1OC)-c1ccc(N(C)CC(OC)OC)c(=O)cc1[C@@H](NC(C)=O)CC2 | active: 0.58 µM | 
65 | O=C(NCc1nc2ccccc2[nH]1)C1=C[C@H](c2ccccc2)C[C@H](OCc2ccc(CO)cc2)O1 | inconclusive [activator, single point] | 
66 | COc1ccc(NC(=O)/C(N=Nc2cc(S(=O)(=O)Nc3ccc(OC)cc3)ccc2OC)=C(\C)O)cc1 | active: 0.58 µM | 
67 | Cc1cccc(Cn2c(C(=O)OC(C)C)cc3c2ccn3C)c1 | inconclusive [activator, single point] | 
68 | COc1ccc(N2CCN(c3nc(NC(C)(C)C)nc(N4CCCCC4)n3)CC2)cc1 | inconclusive [activator, single point] | 
69 | COc1ccc(-c2ccc3c(c2)S(=O)(=O)c2cccc(C(=O)N4CCN(c5ccc(Cl)cn5)CC4)c2C3=O)cc1OC | inactive | 
70 | C=CCn1c(SCC(=O)c2[nH]c(C)c(C(=O)OCC)c2C)nc2scc(-c3ccc(OC)c(OC)c3)c2c1=O | active: 3.26 µM | 
71 | O=C(O)c1ccc(N/N=C/c2cc3cc4c(cc3nc2Cl)OCCO4)cc1 | active: 13 µM | 
72 | Cc1ccc(C(=O)c2oc3ccccc3c2N)cc1 | active: 10 µM | 
73 | COc1ccc(C(=O)Nc2ccc(C(=O)OCC(=O)c3ccccc3)cc2)cc1 | inactive | 
